# Sequences with one replicate were seen in a single cluster, so their values are uncertain.
# Tested on: ATP
# Assay: switch fluorescence ratio, 500 uM ATP over buffer (Cy3 cluster intensity, sum of 5 cycles each) (fold (ratio)); higher = stronger signal-on switching upon ATP binding; sequences stand for … in TCGTCGGCAGCGTCAGATGTGTATAAGAGACAGTTTTTTTTTTTTTTTTTTTTTTTTT…TC
# Conditions: aptamer strand: ATP DNA aptamer (quencher-CACCTGGGGGAGTATTGCGGAGGAAGG + anchor), 100 nM annealed; ATP concentration: 500 uM; one replicate
# In short: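 Per cluster, summed Cy3 intensity from the target cycles was divided by that from the buffer cycles to give the fluorescence ratio, then averaged per switch-domain sequence. Clusters outside 100-1000 RFU were excluded. The Cy3-labelled switching-strand clusters, on a modified Illumina MiSeq flow-cell, were annealed to 100 nM quencher-labelled ATP aptamer and imaged in selection buffer, then after 15 min with 500 uM ATP at 22 °C, for five cycles with NaOH stripping and re-annealing between them.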
# 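Also: ATP exposure 15 min at 22 °C before imaging.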
row,Sequence,switch fluorescence ratio
1,CCAAGATAGA,1.06
2,CCAAGATGT,1
3,CCAAGCTTGG,0.972
4,CCAAGGCCTG,1.02
5,CCAAGGGCGC,1
6,CCAAGGGTGG,0.994
7,CCAAGGTATG,1.04
8,CCAAGGTCCC,1.01
9,CCAAGTAGCA,1.03
10,CCAAGTGTT,0.977
11,CCAATAGATG,0.997
12,CCAATATTCC,2.4
13,CCAATCATTG,1
14,CCAATCCACT,1.04
15,CCAATGGTT,1.02
16,CCAATTGAGC,0.947
17,CCACAAGCAG,2.46
18,CCACACACGA,1.5
19,CCACAGTCCG,1.25
20,CCACCCACCC,1.38
21,CCACCCCAGT,2.16
22,CCACCTGCTC,1.97
23,CCACGAACTT,1.41
24,CCACGGAGTC,1.1
25,CCACGGCATG,1.29
26,CCACGTCCA,1.1

row,Sequence,switch fluorescence ratio
1,CCACGTGTCC,1
2,CCACGTTTCC,1.24
3,CCACTAAAAA,1.02
4,CCACTACACT,1.27
5,CCACTATGTG,1.01
6,CCACTCACGG,1.62
7,CCACTGAAG,1
8,CCACTGGGTC,1.04
9,CCAGAAACCC,1
10,CCAGAAACTT,1.06
11,CCAGAAGTGT,1.05
12,CCAGACAAGC,1.01
13,CCAGACTCAG,1
14,CCAGAGAGGG,0.991
15,CCAGAGAGTG,1.01
16,CCAGAGAT,1.02
17,CCAGCAGGGG,2.38
18,CCAGCGGTGT,1.12
19,CCAGCGGTTT,0.991
20,CCAGCTCTGC,1.05
21,CCAGGCCCGT,0.99
22,CCAGGTCCGG,0.99
23,CCAGGTTAGG,1.06
24,CCAGTAAGAA,1.06
25,CCAGTACGGA,0.996
26,CCAGTCGAAA,1

row,Sequence,switch fluorescence ratio
1,CCAGTGCTGA,1.03
2,CCAGTGGTGC,1.2
3,CCAGTTCTGA,0.983
4,CCAGTTGCCC,1.07
5,CCAGTTTGTC,0.947
6,CCATAATCCG,1.07
7,CCATACGAGC,1
8,CCATACTTGC,1.02
9,CCATAGCATG,2.47
10,CCATATTAGG,1.01
11,CCATATTGTC,1.06
12,CCATCCCGGG,1.12
13,CCATCCTTCT,1.11
14,CCATCGTGCC,1.01
15,CCATCTGGTC,1.04
16,CCATGAATGG,0.983
17,CCATGCCTTT,0.997
18,CCATGCTGCA,1.01
19,CCATGCTGGG,1.03
20,CCATGGAACC,1
21,CCATGGAGCA,1.04
22,CCATGGGTTT,1
23,CCATGTATA,0.977
24,CCATGTATCC,1.04
25,CCATGTCACC,1.08
26,CCATTAACCT,1.77

row,Sequence,switch fluorescence ratio
1,CCATTAGCTT,1.09
2,CCATTGCGTC,1.06
3,CCATTGGATT,1.02
4,CCATTTCTTA,0.999
5,CCATTTTCAA,1.19
6,CCCAAATAGG,1.04
7,CCCAAGAGTG,2.17
8,CCCACAACAG,1.02
9,CCCACCTAAT,1.06
10,CCCACGGACT,1.32
11,CCCACTAATA,1.05
12,CCCAGAACGT,1.02
13,CCCAGACATC,1.08
14,CCCAGACGGC,1.02
15,CCCAGACGGT,1.05
16,CCCAGCATCG,1.12
17,CCCAGCCTCG,1.04
18,CCCAGGCTGG,1.04
19,CCCAGTACAG,1.06
20,CCCAGTAGG,1.06
21,CCCATAATAG,1.21
22,CCCATTGGCC,1.05
23,CCCCAACAGC,1.73
24,CCCCAACTGG,1.07
25,CCCCACGTAT,1.31
26,CCCCAGATGA,2.16

row,Sequence,switch fluorescence ratio
1,CCCCAGCTGT,3.05
2,CCCCATTTTG,0.995
3,CCCCCATTTT,1.04
4,CCCCCCTTTC,1.22
5,CCCCCGAGCT,1.3
6,CCCCCGTTGA,1.86
7,CCCCCGTTGT,2.1
8,CCCCCTAGCG,2.35
9,CCCCCTCTTG,1.12
10,CCCCGAAGGG,0.961
11,CCCCGAGTCT,1.27
12,CCCCGATCGG,0.962
13,CCCCGTTTTT,1.17
14,CCCCTATGGG,1.01
15,CCCCTCACCA,1.04
16,CCCCTCATAT,1.19
17,CCCCTCGG,1.21
18,CCCCTGCATG,2.25
19,CCCCTGCTCG,1.05
20,CCCCTGGACA,1.01
21,CCCCTGGAT,1.05
22,CCCCTGTCTG,1.06
23,CCCCTGTCTT,1.01
24,CCCGATGGG,0.967
25,CCCGATGTTG,1.05
26,CCCGATTACA,0.999

row,Sequence,switch fluorescence ratio
1,CCCGCGGGAA,1.04
2,CCCGGATCAT,0.967
3,CCCGGCAGTC,1.79
4,CCCGGCGGAT,1.06
5,CCCGGGCCGT,1.01
6,CCCGGGGGTA,0.95
7,CCCGGTTACG,0.974
8,CCCGGTTCTC,1.08
9,CCCGTCTATA,1.34
10,CCCGTGTCTC,1.09
11,CCCTAGACTT,0.985
12,CCCTAGGGAA,1.04
13,CCCTCAGGGG,1.24
14,CCCTCGGGCA,1.39
15,CCCTGCGGCG,1.06
16,CCCTGGGGTG,3.26
17,CCCTGGTATT,0.967
18,CCCTGTAGTC,1.14
19,CCCTTGAGTC,1.03
20,CCCTTGTACT,1.05
21,CCCTTTGATT,1.01
22,CCGAAAACCC,1.12
23,CCGAAAGGTG,2.52
